According to article PMC3930761:
Results are given in words; binding and its absence hold for the method and conditions named. In cells and extracts the contact can be indirect. Some results given as binding are weak or reduced against the parent protein; the word gives no strength. For some assays here: Sequences can lack the tags named with a protein.

Amino acid sequences for entries named in this document (tags omitted). A change or cut given only in a name is not applied to a line headed by its entry. Residues count along the entry.
UniProt Q09472: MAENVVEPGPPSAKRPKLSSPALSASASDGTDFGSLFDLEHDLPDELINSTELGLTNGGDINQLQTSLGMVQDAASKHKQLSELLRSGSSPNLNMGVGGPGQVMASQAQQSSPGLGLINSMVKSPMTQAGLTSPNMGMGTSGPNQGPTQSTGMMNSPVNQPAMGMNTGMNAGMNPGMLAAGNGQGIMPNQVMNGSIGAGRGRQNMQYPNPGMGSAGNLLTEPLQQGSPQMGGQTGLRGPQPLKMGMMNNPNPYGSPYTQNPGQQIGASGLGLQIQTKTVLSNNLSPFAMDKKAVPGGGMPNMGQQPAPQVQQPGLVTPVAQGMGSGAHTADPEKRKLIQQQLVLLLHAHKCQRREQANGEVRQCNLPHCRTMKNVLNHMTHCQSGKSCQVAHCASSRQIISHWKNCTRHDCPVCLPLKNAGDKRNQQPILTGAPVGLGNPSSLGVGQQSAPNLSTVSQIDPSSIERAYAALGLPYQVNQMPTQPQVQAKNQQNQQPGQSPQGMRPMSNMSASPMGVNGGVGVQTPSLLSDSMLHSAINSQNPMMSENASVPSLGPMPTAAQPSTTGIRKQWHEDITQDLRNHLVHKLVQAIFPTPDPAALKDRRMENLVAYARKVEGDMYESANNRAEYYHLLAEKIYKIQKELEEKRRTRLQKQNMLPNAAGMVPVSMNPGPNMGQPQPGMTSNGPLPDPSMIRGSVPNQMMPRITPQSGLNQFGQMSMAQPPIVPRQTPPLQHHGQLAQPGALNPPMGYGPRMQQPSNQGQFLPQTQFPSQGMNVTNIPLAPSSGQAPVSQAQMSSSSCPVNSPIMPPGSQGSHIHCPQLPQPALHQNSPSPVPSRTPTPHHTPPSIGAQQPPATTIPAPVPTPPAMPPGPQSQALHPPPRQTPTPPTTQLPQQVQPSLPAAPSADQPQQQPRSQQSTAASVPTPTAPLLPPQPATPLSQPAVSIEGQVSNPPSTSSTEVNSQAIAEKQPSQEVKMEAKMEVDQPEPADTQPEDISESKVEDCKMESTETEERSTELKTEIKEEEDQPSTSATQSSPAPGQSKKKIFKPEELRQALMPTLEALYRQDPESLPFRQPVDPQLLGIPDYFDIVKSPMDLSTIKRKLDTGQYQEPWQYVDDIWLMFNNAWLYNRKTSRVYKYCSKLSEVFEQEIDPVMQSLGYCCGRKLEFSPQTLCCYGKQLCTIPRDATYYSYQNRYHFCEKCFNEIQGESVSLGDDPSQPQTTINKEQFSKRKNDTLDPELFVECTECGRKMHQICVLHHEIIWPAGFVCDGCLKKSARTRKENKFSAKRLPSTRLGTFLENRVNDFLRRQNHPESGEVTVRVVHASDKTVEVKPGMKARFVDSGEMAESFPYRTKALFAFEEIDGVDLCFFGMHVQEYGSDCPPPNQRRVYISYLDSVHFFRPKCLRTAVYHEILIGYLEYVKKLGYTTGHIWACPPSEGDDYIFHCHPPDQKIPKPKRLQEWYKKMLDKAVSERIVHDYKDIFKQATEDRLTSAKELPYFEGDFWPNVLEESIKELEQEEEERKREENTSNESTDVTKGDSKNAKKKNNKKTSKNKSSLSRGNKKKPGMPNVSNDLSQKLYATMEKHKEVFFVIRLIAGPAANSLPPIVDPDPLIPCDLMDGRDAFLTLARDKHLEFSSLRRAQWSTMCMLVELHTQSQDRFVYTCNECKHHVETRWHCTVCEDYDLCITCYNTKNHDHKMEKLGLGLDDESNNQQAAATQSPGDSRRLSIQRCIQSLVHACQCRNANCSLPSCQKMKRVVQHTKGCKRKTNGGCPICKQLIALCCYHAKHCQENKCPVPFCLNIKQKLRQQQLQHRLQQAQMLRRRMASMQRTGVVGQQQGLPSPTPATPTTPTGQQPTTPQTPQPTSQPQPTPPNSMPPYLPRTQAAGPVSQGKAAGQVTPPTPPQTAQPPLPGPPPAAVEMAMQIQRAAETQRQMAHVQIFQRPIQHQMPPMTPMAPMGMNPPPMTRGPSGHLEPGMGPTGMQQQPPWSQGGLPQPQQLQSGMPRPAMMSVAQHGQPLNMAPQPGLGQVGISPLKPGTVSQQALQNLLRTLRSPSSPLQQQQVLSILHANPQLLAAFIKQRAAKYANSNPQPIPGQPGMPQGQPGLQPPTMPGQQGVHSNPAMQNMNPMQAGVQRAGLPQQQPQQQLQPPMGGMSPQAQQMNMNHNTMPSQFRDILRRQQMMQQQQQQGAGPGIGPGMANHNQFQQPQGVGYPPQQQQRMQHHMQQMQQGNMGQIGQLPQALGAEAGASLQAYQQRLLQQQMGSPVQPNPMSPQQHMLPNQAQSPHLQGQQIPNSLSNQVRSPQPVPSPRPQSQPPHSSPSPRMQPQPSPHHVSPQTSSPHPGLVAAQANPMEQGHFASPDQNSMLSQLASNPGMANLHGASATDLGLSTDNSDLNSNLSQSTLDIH
p300ΔC-820 (endogenous, SUDHL2 cells) (human (endogenous in SUDHL2)): residues 1-820 of Q09472
GST-p300-CH1 (aa 300-528): residues 300-528 of Q09472
GST-p300-N340 (aa 340-528): residues 340-528 of Q09472

T1: GST-REL-TAD (aa 324-587) (UniProt Q04864)
T1 sequence: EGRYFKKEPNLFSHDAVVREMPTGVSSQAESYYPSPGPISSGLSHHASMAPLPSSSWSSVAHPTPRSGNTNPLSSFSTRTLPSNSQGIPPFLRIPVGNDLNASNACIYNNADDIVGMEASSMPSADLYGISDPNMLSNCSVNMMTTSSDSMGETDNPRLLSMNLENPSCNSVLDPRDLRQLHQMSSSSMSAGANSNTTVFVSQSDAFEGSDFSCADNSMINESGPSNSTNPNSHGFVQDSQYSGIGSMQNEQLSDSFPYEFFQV


How the values were obtained:
GST-REL-TAD (aa 324-587) = molecular target: T1, GST-REL-TAD (aa 324-587); assay: pull-down; GST fusion protein as bait, incubated with whole-cell extracts (SUDHL2 or A293); bound proteins detected by anti-p300 or anti-REL Western blotting; done as in ref. 10; only the target purified
[1] = molecular target: GST-p300-CH1 (aa 300-528) (UniProt Q09472); assay: as above
[2] = molecular target: GST-p300-N340 (aa 340-528) (UniProt Q09472); assay: as above
[3] = molecular target: p300ΔC-820 (endogenous, SUDHL2 cells) (human (endogenous in SUDHL2)) (UniProt Q09472); assay: co-IP; endogenous proteins; SUDHL2 nuclear extract (250 μg) with anti-p300 antiserum in IP Low Buffer 3 h at 4°C, Protein A Sepharose; anti-REL and anti-p300 Western blotting

Row | binding (GST-REL-TAD (aa 324-587)) | binding [1] | binding [2] | binding [3] | Molecule
1 | binds | – | – | – | p300ΔC-820 (endogenous, SUDHL2 cells) (from UniProt Q09472 1-820)
2 | binds | – | – | – | wild-type p300 (endogenous, A293 cells) (from UniProt Q09472 1-2414)
3 | – | binds | no binding | binds | REL (endogenous, SUDHL2 cells) (protein, UniProt Q04864 1-619) MASGAYNPYIEIIEQPRQRGMRFRYKCEGRSAGSIPGEHSTDNNRTYPSIQIMNYYGKGKVRITLVTKNDPYKPHPHDLVGKDCRDGYYEAEFGQERRPLFFQNLGIRCVKKKEVKEAIITRIKAGINPFNVPEKQLNDIEDCDLNVVRLCFQVFLPDEHGNLTTALPPVVSNPIYDNRAPNTAELRICRVNKNCGSVRGGDEIFLLCDKVQKDDIEVRFVLNDWEAKGIFSQADVHRQVAIVFKTPPYCKAITEPVTVKMQLRRPSDQEVSESMDFRYLPDEKDTYGNKAKKQKTTLLFQKLCQDHVETGFRHVDQDGLELLTSGDPPTLASQSAGITVNFPERPRPGLLGSIGEGRYFKKEPNLFSHDAVVREMPTGVSSQAESYYPSPGPISSGLSHHASMAPLPSSSWSSVAHPTPRSGNTNPLSSFSTRTLPSNSQGIPPFLRIPVGNDLNASNACIYNNADDIVGMEASSMPSADLYGISDPNMLSNCSVNMMTTSSDSMGETDNPRLLSMNLENPSCNSVLDPRDLRQLHQMSSSSMSAGANSNTTVFVSQSDAFEGSDFSCADNSMINESGPSNSTNPNSHGFVQDSQYSGIGSMQNEQLSDSFPYEFFQV
